Assay results published in PubChem BioAssay (NCI).
Where “and” joins values, the source holds several entries; their conditions need not be identical. Equal values may be shown once.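 These data come from cells grown in 96-well plates and exposed to compound for 48 hours at five concentrations. At the GI50, growth is halved. Definition used: TGI = concentration required for complete inhibition of growth.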 Numbered stars: 1 amine (or outer) side, 2 acyl side, 3 side chain; on linkers, the order of the positions; unused ones are H or OH. Bridge positions count the residues as written; N and C are the ends. Square brackets hold non-standard residues; d marks the D form. Peptide text beside a SMILES is read from it. * marks the point of attachment. Phe(3,5-F2) = N[C@@H](Cc1cc(F)cc(F)c1)C(=O)O; Pro(4R-Me) = C[C@H]1CN[C@H](C(=O)O)C1; aThr = C[C@H](O)[C@H](N)C(=O)O; Pip = O=C(O)[C@@H]1CCCCN1; X8 = Fc1cc(C2CC2)ccc1N*; Abu = CC[C@H](N)C(=O)O; CO = O=C([*:1])[*:2]

test system: NCI-H322M lung; assay: NCI anticancer screen, dose series, 48 h

Going from `CCc1c(C)[nH]c2c1/C(=N/N=C1\CCCc3[nH]c(C)c(CC)c31)CCC2` to `COc1ccc2c(c1OC)CO[C@@H]2[C@H]1c2c(c(Br)c3c(c2OC)OCO3)CCN1C`, the TGI falls from over 100 µM to 55 µM.

First: CN1CCN(CCCCN2c3ccccc3Sc3ccc(C(=O)c4ccccc4)cc32)CC1
Second: O=c1c(C(=Nc2ccccc2)c2ccccc2)c[nH]n1-c1ccccc1
The TGI of the first is lower: 3.35 µM for the first, over 100 µM for the second.

`NC(=O)n1ncc(Cl)c(Cl)c1=O` and `CCn1ncc(Oc2c(Cl)cc(N)cc2Cl)c(Cl)c1=O` cannot be ordered by TGI: over 100 µM for the first, over 100 µM for the second.

`SCCCSCCSCCCSCCS` and `COCCCCCC(=O)CP(=O)(OC)OC` cannot be ordered by TGI: over 100 µM for the first, over 100 µM for the second.

`OC1(c2ccccc2)CCCCCCCCC(O)(c2ccccc2)CCCCCCCC1` (stereo unspecified) and `O=c1n(-c2ccccc2)c(=O)n2n1C1C=CC2CCCCCC1` cannot be ordered by TGI: over 100 µM for the first, over 100 µM for the second.

`Cn1c(-c2c(N)n(Cc3ccc(C(F)(F)F)cc3)c3nc(C#N)c(C#N)nc23)nc2ccccc21` and `O=C(O)CCC(NC(=O)c1ccc(Nc2nc3ccc(C(F)(F)F)cc3nc2-c2ccccc2)cc1)C(=O)O` (stereo unspecified) cannot be ordered by TGI: over 100 µM for the first, over 100 µM for the second.

`Oc1ccc2c(c1)OCC1c3ccccc3OC21` (stereo unspecified) and `Nc1ccc2c(c1)Cc1ccccc1-2` cannot be ordered by TGI: over 100 µM for the first, over 100 µM for the second.

`COc1cc(-c2nn(-c3ccc(NC(=O)NCCCNC(=O)c4ccccc4)cc3)cc2-c2ccncc2)ccc1Cl` and `COc1ccc(NC(=S)N/N=C/c2c(C)n(C)n(-c3ccccc3)c2=O)cc1` cannot be ordered by TGI: over 100 µM for the first, over 100 µM for the second.

Compared with `CN1C(=O)N(C)C(N2CCCC2)c2c1nc1ccccn1c2=O` (stereo unspecified), `Cn1c2ccccc2c2ccc3c(c21)C(=O)C=CC3=O` is lower in TGI: over 100 µM for the first, 53.2 µM for the second.

`CC1SC(c2ccc(Cl)c(Cl)c2)N(NC(=O)C(O)c2ccccc2)C1=O` (stereo unspecified) and `O=C1OC(CC(=O)c2ccccc2Cl)C(Cl)=C1Cl` (stereo unspecified) cannot be ordered by TGI: over 100 µM for the first, over 100 µM for the second.

`COc1cc2oc(-c3ccc4c(c3)OCO4)c(OC)c(=O)c2c(OC)c1OC` and `COC(=O)C1=C(c2cc(OC)c(OC)c(OC)c2)OC(c2ccc3c(c2)OCO3)C1` (stereo unspecified) cannot be ordered by TGI: over 100 µM for the first, over 100 µM for the second.

`O=[N+]([O-])c1cccc(-c2ncnc(-c3cccc([N+](=O)[O-])c3)n2)c1` and `Cc1nc2ccccc2c(=O)n1NC(=S)Nc1ccccc1` cannot be ordered by TGI: over 100 µM for the first, over 100 µM for the second.

`FC(F)(F)c1cccc2ns[s+]c12` and `FC(F)(F)CNc1nccc(-c2cnn3ncccc23)n1` cannot be ordered by TGI: over 100 µM for the first, over 25 µM for the second.

`COC(=O)C(=O)C(C(=O)OC)C(=O)C(=O)Nc1ccccc1C(N)=O` (stereo unspecified) and `COC(=O)C(C/C=C(\C)c1ccccc1)C(C)=O` (stereo unspecified) cannot be ordered by TGI: over 100 µM for the first, over 100 µM for the second.

`Cc1cc(I)cc(CN(C)CCN2CCOCC2)c1O` and `Cn1c(=O)c2c(ncn2Cc2ccc(O)c([N+](=O)[O-])c2)n(C)c1=O` cannot be ordered by TGI: over 100 µM for the first, over 100 µM for the second.

`Nc1ccn(C2OC(COP(=O)(O)OCC3OC(n4cc(F)c(=O)[nH]c4=O)CC3O)C(O)C2O)c(=O)n1` (stereo unspecified) and `CC(=O)OCC1OC(N2C(=S)N[C@H]([C@@H](O)[C@H](O)[C@H](O)CO)[C@H]2O)C(OC(C)=O)C(OC(C)=O)C1OC(C)=O` (stereo partly specified) cannot be ordered by TGI: over 100 µM for the first, over 100 µM for the second.

Going from `Fc1ccc(-c2nnc3sc(-c4cc(Cl)cc(Cl)c4)nn23)cc1Cl` to `Oc1c(Cl)cc(Cl)c2ccc(Cn3cc(-c4cc(F)cc(F)c4)nn3)nc12`, the TGI falls from over 100 µM to 28.7 µM.

First: O=c1oc2ccc(Cl)cc2cc1C1=CSC2=NCCN12
Second: Clc1ccc2oc(CCC3CCCCC3)nc2c1
The TGI of the first is lower: 43 µM for the first, over 100 µM for the second.

Going from `CC(C)(C)OC(=O)NCC(c1c[nH]c2ccc(Br)cc12)c1c[nH]c2ccc(Br)cc12` to `CCn1cc(C(=O)N/N=C/c2ccc(Br)cc2)c(=O)c2cc(F)c(N3CCNC(C)C3)c(F)c21` (stereo unspecified), the TGI falls from 20.7 µM to 3.1 µM (6.7-fold).

First: CC1=C[C@H](O)[C@@]2(C)[C@@H]([C@@H]1C)[C@H]1CC[C@@H]3[C@@]4(C)CC[C@H](O)C(C)(C)[C@@H]4CC[C@@]3(C)[C@]1(C)C[C@@H]2O
Second: C[C@]12CC[C@H](OC3OC(O)C(O)C(O)C3O)C=C1CCC1C2CC[C@]2(C)[C@@H](c3ccc(=O)oc3)CC[C@]12O (stereo partly specified)
The TGI of the first is 4600-fold higher: 28.3 µM for the first, 0.00611 µM for the second.

First: CC[C@@H]1NC(=O)[C@@H]2CCCCN2C(=O)[C@@H]2CCCN2C(=O)[C@@H](NC(=O)[C@H](Cc2cc(F)cc(F)c2)NC(=O)Nc2ccc(C3CC3)cc2F)[C@H](C)OC(=O)[C@@H]2C[C@@H](C)CN2C1=O ({X8-CO}-[Phe(3,5-F2)][aThr]P[Pip][Abu][Pro(4R-Me)]; ester 2-C)
Second: COC(=O)c1c2c(c3[nH]c4ccccc4c3c1C(=O)OC)C(=O)C1=C(C2=O)C2(Cl)C(Cl)C(Cl)C1(Cl)C2(Cl)Cl (stereo unspecified)
The TGI of the first is lower: 8.27 µM for the first, over 100 µM for the second.

Going from `COC(=O)CCC1(NS(=O)(=O)c2ccc(C)cc2)CCC(C(C)(C)C)CC1` (stereo unspecified) to `COC(=O)C([C@H]1CC[C@H](OCc2ccccc2)[C@@]1(O)COCc1ccccc1)C(C)(O)CCc1ccccc1` (stereo partly specified), the TGI rises from 73 µM to over 100 µM.

`COc1ccc2c(=O)c(-c3cc4c(cc3OC)OCO4)coc2c1` and `CN(C)c1ccc(/C=N/N=C2\C(=O)Nc3c(Cl)cc(Cl)cc32)cc1` cannot be ordered by TGI: over 100 µM for the first, over 100 µM for the second.

`COC(=S)OC1CC(n2cnc3c(=O)[nH]cnc32)OC1CO[Si](C)(C)C(C)(C)C` (stereo unspecified) and `Clc1ccc(C2ON=C(c3ccccc3)N2C23CC4CC(CC(C4)C2)C3)c(Cl)c1` (stereo unspecified) cannot be ordered by TGI: over 100 µM for the first, over 10 µM for the second.

Compared with `COc1ccc2c(c1OC)CO[C@@H]2[C@H]1c2c(c(Br)c3c(c2OC)OCO3)CCN1C`, `CCn1cc(C(=O)N/N=C/c2ccc(Br)cc2)c(=O)c2cc(F)c(N3CCNC(C)C3)c(F)c21` (stereo unspecified) is 5.6-fold lower in GI50: 9.48 µM for the first, 1.68 µM for the second.

First: Cn1c(-c2c(N)n(Cc3ccc(C(F)(F)F)cc3)c3nc(C#N)c(C#N)nc23)nc2ccccc21
Second: FC(F)(F)CNc1nccc(-c2cnn3ncccc23)n1
The GI50 of the first is 2.2-fold higher: 30 µM for the first, 13.9 µM for the second.

Compared with `COc1cc(-c2nn(-c3ccc(NC(=O)NCCCNC(=O)c4ccccc4)cc3)cc2-c2ccncc2)ccc1Cl`, `CC1SC(c2ccc(Cl)c(Cl)c2)N(NC(=O)C(O)c2ccccc2)C1=O` (stereo unspecified) is 78-fold higher in GI50: 0.784 µM for the first, 60.8 µM for the second.

Going from `Cc1cc(I)cc(CN(C)CCN2CCOCC2)c1O` to `CC[C@@H]1NC(=O)[C@@H]2CCCCN2C(=O)[C@@H]2CCCN2C(=O)[C@@H](NC(=O)[C@H](Cc2cc(F)cc(F)c2)NC(=O)Nc2ccc(C3CC3)cc2F)[C@H](C)OC(=O)[C@@H]2C[C@@H](C)CN2C1=O` ({X8-CO}-[Phe(3,5-F2)][aThr]P[Pip][Abu][Pro(4R-Me)]; ester 2-C), the GI50 falls from over 85.1 µM to 0.361 µM.

Compared with `Fc1ccc(-c2nnc3sc(-c4cc(Cl)cc(Cl)c4)nn23)cc1Cl`, `Oc1c(Cl)cc(Cl)c2ccc(Cn3cc(-c4cc(F)cc(F)c4)nn3)nc12` is 2.1-fold lower in GI50: 32.6 µM for the first, 15.3 µM for the second.

In the case of `C[C@]12CC[C@H](OC3OC(O)C(O)C(O)C3O)C=C1CCC1C2CC[C@]2(C)[C@@H](c3ccc(=O)oc3)CC[C@]12O` (stereo partly specified), the GI50 is reported as 0.005 µM.

With `CCCCCc1c(C)[nH]c(/C=C2\N=C(c3ccc[nH]3)C=C2Oc2ccccc2)c1C` the GI50 was 0.0364 µM and 0.017 µM.

For `CCCCCc1c(C)[nH]c(/C=C2\N=C(c3ccc[nH]3)C=C2Oc2ccccc2)c1C`, the TGI was 3.4 µM and 2.89 µM.
